Consider one molecule from publication PMC2809015 (Biochemistry, 2009).

The target of this experiment is T1, HscA, Hsp70-class molecular chaperone of the isc operon (E. coli, UniProt P0A6Z1 1-616).
T1 sequence (looked up): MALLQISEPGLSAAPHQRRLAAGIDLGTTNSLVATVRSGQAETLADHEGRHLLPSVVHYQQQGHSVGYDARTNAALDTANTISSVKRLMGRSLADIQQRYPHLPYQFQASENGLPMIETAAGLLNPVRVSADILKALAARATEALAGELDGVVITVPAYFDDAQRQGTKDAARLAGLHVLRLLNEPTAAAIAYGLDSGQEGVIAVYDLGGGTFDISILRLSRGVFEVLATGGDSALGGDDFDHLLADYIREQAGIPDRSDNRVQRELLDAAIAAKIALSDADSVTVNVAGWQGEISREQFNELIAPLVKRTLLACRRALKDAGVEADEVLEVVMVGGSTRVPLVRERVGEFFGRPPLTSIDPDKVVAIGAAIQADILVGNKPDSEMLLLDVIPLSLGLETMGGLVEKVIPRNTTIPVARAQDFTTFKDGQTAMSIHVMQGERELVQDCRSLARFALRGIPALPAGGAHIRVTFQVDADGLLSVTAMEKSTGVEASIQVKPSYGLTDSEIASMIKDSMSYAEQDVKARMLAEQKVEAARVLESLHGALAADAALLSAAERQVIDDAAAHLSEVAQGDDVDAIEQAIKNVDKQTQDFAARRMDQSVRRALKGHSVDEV
Put plainly: molecular weight filtration assay.

B1: IscU, FeS cluster assembly scaffold protein (natural protein, E. coli, UniProt P0ACD4 1-128, looked up)
chain: MAYSEKVIDHYENPRNVGSFDNNDENVGSGMVGAPACGDVMKLQIKVNDEGIIEDARFKTYGCGSAIASSSLVTEWVKGKSLDEAQAIKNTDIAEELELPPVKIHCSILAEDAIKAAIADYKSKREAK
With B1, binding was characterised by a dissociation constant (Kd) of 10.3 ± 2.5 µM.
